Assay results published in the domain aggregation screens of Martell et al. (2025).

Assay: soluble fraction after stress (log2 fold change); higher = more stays soluble; pooled small domains, quantitative proteomics
Conditions: stress: pH 4
How it was run: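 Aggregation propensity is estimated from the fold change in each domain's soluble amount after acid stress. Pooled small-domain libraries were stressed at pH 4, and higher log2 values mean more stayed soluble.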

Compared with “HMADYYSVLGVERDATEEEIKRAYRKMSRKYHPDLAGPQFEEKFKEVNTAYEVLSDPEKRRMFDMGVDPN”, “HMDQVDDEELLDLVELEVRELLSAYEFPGDDIPIIKGSALAALEGGDEATGKNAILELMKAVDDYVPQPE” is lower in “soluble fraction (log2)” value: 0.177 for the first, -1.54 for the second.

Going from “HMGIYRHFKGGLYEVVGTAKHSETEEELIVYRALYGDYGLWARPAAMFTETVEIDGEPLPRFSLI” to “HMKAAYITIHDKIKDDIDLGIWKIGQRLPSERDLADEFGVSRMTLRQAITLLVEEGVLTRKVGSGTYVAS”, the “soluble fraction (log2)” value rises from -0.917 to ≥ 0.43.

First: HMKYKDYYAVLGVPRDADLDQIKKAYRKLARQFHPDVSKEPNAEAQFKEAGEAYATLKDAEKRAAYDQLG
Second: HMNDDYYAILGVSRDADQSEIKKAYRKKARETHPDYGGDEEAFKAVSVAYETLSDPEKRRMYDIGGPDAAR
The “soluble fraction (log2)” value of the first is lower: 0.203 for the first, ≥ 0.43 for the second.

Going from “HMPLHDIGKVGIPDHILLKPGKLTPAEWEVMKTHARLGAAAIEQAEREATRPVEFLVLAKEIAHHHHER” to “HMPREEGIVKWFNRTKGFGFIIRENGDEIFVHHRSVSAHGGQRANLSDGQRVTFTVVERSKGWQAEDVDP”, the “soluble fraction (log2)” value falls from 0.152 to -1.62.

First: HMQSHRFQRLQNDLANRIAQTPPSERLPSEPQLAQELGVSRATLREAMRAFEAQGLIRRKQGAGTFVVG
Second: HMQVDDAELIDLVEMEIRELLTSYEFPGDTIPIVKGSALAALEGRDDEIGKNSILELMKAVDESIPQPT
The “soluble fraction (log2)” value of the first is higher: ≥ 0.43 for the first, -0.895 for the second.

First: HMSDYYSVLGVSRDATGEEIKRAYRKLARELHPDVNPDPATNEKFKEVTAAYEVLSDPSKRQMYDLGGDPR
Second: HMVDYYEVLGVRVDASDSEVKRAYRRLIVENHPDKLIAQGLPQEFIDLANEKMGAINSAYDMIKKERRI
The “soluble fraction (log2)” value of the first is higher: -0.0146 for the first, -1.16 for the second.
